Experimental data published in publication PMC12820563.
Some of the results follow. The list includes weakly bound sequences.

Target: T1, MBP-FoxP3dN (UniProt Q99JB6)
T1 sequence: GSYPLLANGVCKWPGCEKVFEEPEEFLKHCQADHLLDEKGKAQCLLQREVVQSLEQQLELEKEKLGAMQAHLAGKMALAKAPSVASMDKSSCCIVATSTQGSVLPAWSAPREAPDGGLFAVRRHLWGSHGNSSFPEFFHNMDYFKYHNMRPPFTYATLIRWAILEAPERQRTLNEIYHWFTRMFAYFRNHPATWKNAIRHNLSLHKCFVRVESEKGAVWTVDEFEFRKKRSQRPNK
Assay: PD-seq (MBP pull-down with sequencing)
Details: 20 mM Tris-HCl pH 7.5, 100 mM NaCl, 1.5 mM MgCl2, 0.4 uM protein, 0.1 uM dsDNA library, 30 min, room temperature, amylose pull-down; high values mean tight binding; double strand, one strand shown

Sequence	binding signal (RPM ratio (pull-down/input))
GATGATTGTTCTCCCAGCTGATGAATTGAACTGCTCGAGTAAACAAATTTTCCTAATCTTTCTGTTCAAGCGCCATCTAC	0.283
GATGATTGTTCTCCCAGCTGATGAATTCATCCTATCGAGTAAACAAATTTTCCTAATCTTTCTGTTCAAGCGCCATCTAC	0.461
GATGATTGTTCTCCCAGCTGATGAATTTGGAACATCGAGTAAACAAATTTTCCTAATCTTTCTGTTCAAGCGCCATCTAC	0.503
GATGATTGTTCTCCCAGCTGATGAATTATGCCACTCGAGTAAACAAATTTTCCTAATCTTTCTGTTCAAGCGCCATCTAC	6.25
GATGATTGTTCTCCCAGCTGATGAATTTTACGATTCGAGTAAACAAATTTTCCTAATCTTTCTGTTCAAGCGCCATCTAC	0.308
GATGATTGTTCTCCCAGCTGATGAATTCATTTGTTCGAGTAAACAAATTTTCCTAATCTTTCTGTTCAAGCGCCATCTAC	3.73
GATGATTGTTCTCCCAGCTGATGAATTTGACAATTCGAGTAAACAAATTTTCCTAATCTTTCTGTTCAAGCGCCATCTAC	0.514
GATGATTGTTCTCCCAGCTGATGAATTGAGCCCATCGAGTAAACAAATTTTCCTAATCTTTCTGTTCAAGCGCCATCTAC	0.944
GATGATTGTTCTCCCAGCTGATGAATTTGGAATGTCGAGTAAACAAATTTTCCTAATCTTTCTGTTCAAGCGCCATCTAC	0.649
GATGATTGTTCTCCCAGCTGATGAATTAAGATACTCGAGTAAACAAATTTTCCTAATCTTTCTGTTCAAGCGCCATCTAC	0.78
GATGATTGTTCTCCCAGCTGATGAATTTTAAAGGTCGAGTAAACAAATTTTCCTAATCTTTCTGTTCAAGCGCCATCTAC	0.167
GATGATTGTTCTCCCAGCTGATGAATTTATTTCGTCGAGTAAACAAATTTTCCTAATCTTTCTGTTCAAGCGCCATCTAC	2.99
GATGATTGTTCTCCCAGCTGATGAATTTTAATTGTCGAGTAAACAAATTTTCCTAATCTTTCTGTTCAAGCGCCATCTAC	2.53
GATGATTGTTCTCCCAGCTGATGAATTTGCATCTTCGAGTAAACAAATTTTCCTAATCTTTCTGTTCAAGCGCCATCTAC	7.16
GATGATTGTTCTCCCAGCTGATGAATTGACTCCTTCGAGTAAACAAATTTTCCTAATCTTTCTGTTCAAGCGCCATCTAC	0.393
GATGATTGTTCTCCCAGCTGATGAATTGAGTCTATCGAGTAAACAAATTTTCCTAATCTTTCTGTTCAAGCGCCATCTAC	0.636
GATGATTGTTCTCCCAGCTGATGAATTCTGCTACTCGAGTAAACAAATTTTCCTAATCTTTCTGTTCAAGCGCCATCTAC	2.1
GATGATTGTTCTCCCAGCTGATGAATTGAACATCTCGAGTAAACAAATTTTCCTAATCTTTCTGTTCAAGCGCCATCTAC	0.513
GATGATTGTTCTCCCAGCTGATGAATTCGTAGTGTCGAGTAAACAAATTTTCCTAATCTTTCTGTTCAAGCGCCATCTAC	1.8
GATGATTGTTCTCCCAGCTGATGAATTCGTGTGTTCGAGTAAACAAATTTTCCTAATCTTTCTGTTCAAGCGCCATCTAC	1.9
GATGATTGTTCTCCCAGCTGATGAATTCCTTGTTTCGAGTAAACAAATTTTCCTAATCTTTCTGTTCAAGCGCCATCTAC	0.413

Sequence	binding signal (RPM ratio (pull-down/input))
GATGATTGTTCTCCCAGCTGATGAATTTGCGCCATCGAGTAAACAAATTTTCCTAATCTTTCTGTTCAAGCGCCATCTAC	3.14
GATGATTGTTCTCCCAGCTGATGAATTTGTCTAATCGAGTAAACAAATTTTCCTAATCTTTCTGTTCAAGCGCCATCTAC	2.93
GATGATTGTTCTCCCAGCTGATGAATTCTTATGTTCGAGTAAACAAATTTTCCTAATCTTTCTGTTCAAGCGCCATCTAC	0.556
GATGATTGTTCTCCCAGCTGATGAATTTTGGTCGTCGAGTAAACAAATTTTCCTAATCTTTCTGTTCAAGCGCCATCTAC	0.496
GATGATTGTTCTCCCAGCTGATGAATTTGTCACGTCGAGTAAACAAATTTTCCTAATCTTTCTGTTCAAGCGCCATCTAC	5.14
GATGATTGTTCTCCCAGCTGATGAATTGATCCCCTCGAGTAAACAAATTTTCCTAATCTTTCTGTTCAAGCGCCATCTAC	0.286
GATGATTGTTCTCCCAGCTGATGAATTCAGGATTTCGAGTAAACAAATTTTCCTAATCTTTCTGTTCAAGCGCCATCTAC	0.289
GATGATTGTTCTCCCAGCTGATGAATTCCGCTGATCGAGTAAACAAATTTTCCTAATCTTTCTGTTCAAGCGCCATCTAC	0.55
GATGATTGTTCTCCCAGCTGATGAATTCTGAGGCTCGAGTAAACAAATTTTCCTAATCTTTCTGTTCAAGCGCCATCTAC	0.422
GATGATTGTTCTCCCAGCTGATGAATTCAGGTATTCGAGTAAACAAATTTTCCTAATCTTTCTGTTCAAGCGCCATCTAC	0.944
GATGATTGTTCTCCCAGCTGATGAATTATTGTTATCGAGTAAACAAATTTTCCTAATCTTTCTGTTCAAGCGCCATCTAC	3.55
GATGATTGTTCTCCCAGCTGATGAATTTGCACCGTCGAGTAAACAAATTTTCCTAATCTTTCTGTTCAAGCGCCATCTAC	0.628
GATGATTGTTCTCCCAGCTGATGAATTCATTACGTCGAGTAAACAAATTTTCCTAATCTTTCTGTTCAAGCGCCATCTAC	0.489
GATGATTGTTCTCCCAGCTGATGAATTATCCCTTTCGAGTAAACAAATTTTCCTAATCTTTCTGTTCAAGCGCCATCTAC	0.303
GATGATTGTTCTCCCAGCTGATGAATTGTCAATCTCGAGTAAACAAATTTTCCTAATCTTTCTGTTCAAGCGCCATCTAC	0.498
GATGATTGTTCTCCCAGCTGATGAATTGCCTAAATCGAGTAAACAAATTTTCCTAATCTTTCTGTTCAAGCGCCATCTAC	0.462
GATGATTGTTCTCCCAGCTGATGAATTCTAACAATCGAGTAAACAAATTTTCCTAATCTTTCTGTTCAAGCGCCATCTAC	0.637
GATGATTGTTCTCCCAGCTGATGAATTTTCACGCTCGAGTAAACAAATTTTCCTAATCTTTCTGTTCAAGCGCCATCTAC	0.323
GATGATTGTTCTCCCAGCTGATGAATTCCCAGGATCGAGTAAACAAATTTTCCTAATCTTTCTGTTCAAGCGCCATCTAC	0.145
GATGATTGTTCTCCCAGCTGATGAATTGACCTACTCGAGTAAACAAATTTTCCTAATCTTTCTGTTCAAGCGCCATCTAC	0.329
GATGATTGTTCTCCCAGCTGATGAATTTCCAAATTCGAGTAAACAAATTTTCCTAATCTTTCTGTTCAAGCGCCATCTAC	0.207

Sequence	binding signal (RPM ratio (pull-down/input))
GATGATTGTTCTCCCAGCTGATGAATTATAGCGTTCGAGTAAACAAATTTTCCTAATCTTTCTGTTCAAGCGCCATCTAC	1.27
GATGATTGTTCTCCCAGCTGATGAATTCAACTTCTCGAGTAAACAAATTTTCCTAATCTTTCTGTTCAAGCGCCATCTAC	0.303
GATGATTGTTCTCCCAGCTGATGAATTATCGATGTCGAGTAAACAAATTTTCCTAATCTTTCTGTTCAAGCGCCATCTAC	0.472
GATGATTGTTCTCCCAGCTGATGAATTATTGACCTCGAGTAAACAAATTTTCCTAATCTTTCTGTTCAAGCGCCATCTAC	1.05
GATGATTGTTCTCCCAGCTGATGAATTTGATAAGTCGAGTAAACAAATTTTCCTAATCTTTCTGTTCAAGCGCCATCTAC	0.369
GATGATTGTTCTCCCAGCTGATGAATTGAGTGCGTCGAGTAAACAAATTTTCCTAATCTTTCTGTTCAAGCGCCATCTAC	0.911
GATGATTGTTCTCCCAGCTGATGAATTTCCGCTGTCGAGTAAACAAATTTTCCTAATCTTTCTGTTCAAGCGCCATCTAC	0.336
GATGATTGTTCTCCCAGCTGATGAATTCTATTTCTCGAGTAAACAAATTTTCCTAATCTTTCTGTTCAAGCGCCATCTAC	1.19
GATGATTGTTCTCCCAGCTGATGAATTGCAGTAATCGAGTAAACAAATTTTCCTAATCTTTCTGTTCAAGCGCCATCTAC	1.01
GATGATTGTTCTCCCAGCTGATGAATTTCTTCGTTCGAGTAAACAAATTTTCCTAATCTTTCTGTTCAAGCGCCATCTAC	0.236
GATGATTGTTCTCCCAGCTGATGAATTTACACTTTCGAGTAAACAAATTTTCCTAATCTTTCTGTTCAAGCGCCATCTAC	0.702
GATGATTGTTCTCCCAGCTGATGAATTCGAGTCATCGAGTAAACAAATTTTCCTAATCTTTCTGTTCAAGCGCCATCTAC	0.592
GATGATTGTTCTCCCAGCTGATGAATTTTGACTGTCGAGTAAACAAATTTTCCTAATCTTTCTGTTCAAGCGCCATCTAC	1.13
GATGATTGTTCTCCCAGCTGATGAATTAACTGAATCGAGTAAACAAATTTTCCTAATCTTTCTGTTCAAGCGCCATCTAC	0.228
GATGATTGTTCTCCCAGCTGATGAATTCCATGCATCGAGTAAACAAATTTTCCTAATCTTTCTGTTCAAGCGCCATCTAC	0.979
GATGATTGTTCTCCCAGCTGATGAATTCGGCTCCTCGAGTAAACAAATTTTCCTAATCTTTCTGTTCAAGCGCCATCTAC	0.758
GATGATTGTTCTCCCAGCTGATGAATTGGGCTCCTCGAGTAAACAAATTTTCCTAATCTTTCTGTTCAAGCGCCATCTAC	0.659
GATGATTGTTCTCCCAGCTGATGAATTGGCAGGCTCGAGTAAACAAATTTTCCTAATCTTTCTGTTCAAGCGCCATCTAC	0.317
GATGATTGTTCTCCCAGCTGATGAATTACAACGCTCGAGTAAACAAATTTTCCTAATCTTTCTGTTCAAGCGCCATCTAC	0.565
GATGATTGTTCTCCCAGCTGATGAATTAATCGAGTCGAGTAAACAAATTTTCCTAATCTTTCTGTTCAAGCGCCATCTAC	0.273
GATGATTGTTCTCCCAGCTGATGAATTGGAAAGTTCGAGTAAACAAATTTTCCTAATCTTTCTGTTCAAGCGCCATCTAC	0.162
